# This is one part of the list. Values were computed here from the reads of four pooled replicates and scatter widely.
# Biological target: T1, Pho4 (S. cerevisiae) (UniProt P07270)
# T1 sequence: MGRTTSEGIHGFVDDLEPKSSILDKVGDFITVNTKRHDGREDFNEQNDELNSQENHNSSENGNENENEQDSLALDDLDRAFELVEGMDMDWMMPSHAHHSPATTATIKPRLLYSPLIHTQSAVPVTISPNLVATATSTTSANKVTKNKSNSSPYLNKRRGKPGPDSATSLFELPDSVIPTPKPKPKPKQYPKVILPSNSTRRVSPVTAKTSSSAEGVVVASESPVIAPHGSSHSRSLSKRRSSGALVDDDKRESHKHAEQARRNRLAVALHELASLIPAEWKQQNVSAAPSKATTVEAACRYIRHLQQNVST
# Assay: relative binding free energy (BET-seq); higher = weaker binding
# Settings: reference: library average
row,Sequence,relative binding free energy [kcal/mol]
1,GCGGTCACGTGGAGTC,0.15
2,ATATGCACGTGTGTTT,-0.03
3,GCTGTCACGTGGGTCG,0.13
4,GTTTGCACGTGATAGG,0.14
5,ATGCGCACGTGTGGGT,-0.1
6,GCATTCACGTGGGTTA,0.15
7,GCATGCACGTGCGGGT,-0.02
8,TGATACACGTGGCAGT,-0.08
9,GATGCCACGTGTTTAG,0.06
10,ATATTCACGTGGTTTT,0.22
11,CTGCGCACGTGGTTTG,-0.21
12,GGAAACACGTGCTGTT,0.11
13,TCGGTCACGTGGAGGA,0.09
14,AGTGGCACGTGGAATA,-0.08
15,TCGTTCACGTGGTGTC,0.35
16,GTTTGCACGTGTTTCG,0.19
17,ATAGACACGTGTTCTG,0.02
18,CATGGCACGTGGTTGG,-0.2
19,TTAGCCACGTGTTGTT,-0.05
20,AGTTGCACGTGTTTAC,0.13
21,GGTGACACGTGTTTCT,0.05
22,TGGCTCACGTGTGTTG,0.19
23,TGATGCACGTGTCAGG,0.01

row,Sequence,relative binding free energy [kcal/mol]
1,ATAATCACGTGGACGT,0.18
2,TGATCCACGTGTCGGG,0.04
3,ATTGTCACGTGAAGTC,0.2
4,TGGAACACGTGTGATT,0.07
5,TATTGCACGTGTTTGG,0.12
6,GTTGGCACGTGGTGAA,-0.09
7,GTGCGCACGTGGCGGA,-0.14
8,ATGGCCACGTGTGTAT,-0.07
9,ATGTTCACGTGGATTA,0.17
10,TTACTCACGTGTTATG,0.21
11,ATGTACACGTGATGTA,0.06
12,TGCGGCACGTGATGGC,0.1
13,AGGAGCACGTGTAGCG,-0.06
14,GTATTCACGTGAGTCT,0.28
15,ATTGACACGTGTGTTG,-0.01
16,AGTGACACGTGTTGGC,0.01
17,ATGAGCACGTGAATGA,0.14
18,AGTATCACGTGACGGG,0.13
19,TTTTTCACGTGTACAT,0.18
20,TGGGCCACGTGATGTA,0.05
21,TGAGGCACGTGAGAGT,0.18
22,CGATACACGTGTATGG,0.1
23,TGACGCACGTGGTATT,-0.07

row,Sequence,relative binding free energy [kcal/mol]
1,TGTGACACGTGGGTGG,-0.07
2,GTCGGCACGTGGGTCA,-0.21
3,GGTTTCACGTGTTTAG,0.34
4,TCTAACACGTGGGGTA,-0.26
5,TTCATCACGTGTATTG,0
6,TGATACACGTGGAATG,0.12
7,TGGCTCACGTGGAGGC,0.31
8,GATAACACGTGTTAGG,0.01
9,TTTGACACGTGTAGTA,0.07
10,GAGTGCACGTGGGGGA,-0.1
11,AAATACACGTGGTTGT,-0.04
12,GGTTCCACGTGCTGTG,0.09
13,TTCTACACGTGTAGAG,0.18
14,AGGAACACGTGAGGAG,0.21
15,ATGGTCACGTGTTTAT,0.14
16,AGGAACACGTGAGGTA,0.26
17,CTAAACACGTGGGGTG,-0.17
18,TTGTGCACGTGTATTA,-0.03
19,TCGAGCACGTGTTGAT,0.11
20,AGAAGCACGTGAGGTG,0.13
21,TTCCACACGTGTGGGG,0.12
22,TTACTCACGTGGTTGG,0.28
23,AGTTTCACGTGGTGAT,0.29

row,Sequence,relative binding free energy [kcal/mol]
1,AGGTTCACGTGATTGG,0.42
2,GGAATCACGTGGAGGT,0.32
3,TTTGGCACGTGGAGTG,-0.07
4,ACTTTCACGTGTTAGT,0.26
5,GTATTCACGTGTCGGC,0.19
6,TGGTACACGTGATTTA,0.12
7,ATAGACACGTGGGAGG,-0.11
8,GGGTTCACGTGTCATT,0.24
9,TTTTTCACGTGCATCG,0.41
10,AGCGTCACGTGCGGTG,-0.11
11,TACGGCACGTGTGATT,-0.05
12,GGACTCACGTGGTGTG,0.14
13,TGGTGCACGTGATTAC,0.12
14,CGATGCACGTGAAGGT,0.22
15,GGGTGCACGTGGAGTA,0.01
16,TTTGACACGTGTCCGG,0.1
17,AGGGTCACGTGTGTCT,0.23
18,GTTAACACGTGTTCGT,0.09
19,GTTAGCACGTGAGGGG,0.21
20,AAGTTCACGTGAATTG,0.27
21,AGAGGCACGTGTACGT,-0.06
22,CAGTTCACGTGTGGGA,0.27
23,ATAGGCACGTGATGTT,0.04

row,Sequence,relative binding free energy [kcal/mol]
1,TGTTTCACGTGTTGAA,0.26
2,TGGGACACGTGGCAGG,-0.06
3,GGTTGCACGTGAGAGC,0.27
4,GTCTACACGTGTGGTA,-0.02
5,GTTTACACGTGTGATA,0.2
6,TCAGGCACGTGGGTGT,-0.29
7,GCTGGCACGTGAGGTA,0.13
8,ATATTCACGTGTTTTG,0.14
9,CGTAGCACGTGTGGCT,-0.07
10,AACGTCACGTGAGTGG,0.19
11,CTTGACACGTGTGAGT,0.09
12,AGTTACACGTGCGTTA,0.07
13,GATTTCACGTGGGCAT,0.24
14,AGTGGCACGTGTGGCA,-0.02
15,TAGGACACGTGTGGAA,0.12
16,TGTTACACGTGGGTTC,-0.04
17,GTTTACACGTGGGGAG,0.1
18,TAGTTCACGTGTTCTG,0.3
19,TTCGACACGTGGGCGT,-0.08
20,CCGGTCACGTGGGATG,-0.03
21,ACGTTCACGTGTAAAT,0.43
22,AATTGCACGTGGGACG,-0.2
23,GAGAACACGTGTTTGG,-0.03
